# Experimental data from PubChem BioAssay (NCATS).
# Inconclusive means that the source gave no clear call. Such entries were picked first, then a sample of the others. For part of these data: Potencies of inconclusive entries are doubtful fits and often do not repeat. Calls of active or inactive are those of the source. Unless noted, calls follow the shape of the dose curve; as a rule, active = well fitted curve in the direction sought with a large enough effect; inconclusive = small, poorly fitted or top-dose-only effect, or another doubt; inactive = no such curve, though single readings can be large; an effect the other way counts as inactive or inconclusive.
# Columns and labels:
# Tov112D = assay: Primary qHTS to identify gynecologic anti-cancer compounds using libraries of approved drugs and bioactive compounds (AID 1345084); settings: Gynecologic cancer cell panel viability, ATPlite luminescence, 48 h; series mostly up to 57.5 µM; also: nearly all actives have a fitted effect of over 55% in size
# In short: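 Five-point cytotoxicity, 48 h drug exposure at 37 C, 5% CO2, on cells seeded 16 h beforehand. ATP content read by ATPlite luminescence.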
# CP329 = assay: qHTS profiling for inhibitors of Plasmodium falciparum proliferation (AID 504749); also: nearly all actives have a fitted effect of over 60% in size; settings: P. falciparum in erythrocytes, SYBR Green DNA, 72 h; series mostly up to 28.7 µM
# In short: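 Readout was DNA-dye fluorescence from lysed cultures, ex 485/em 535 nm. Parasitized red cells had grown 72 h with compound; data scaled between 0.29 uM artemisinin and DMSO wells and corrected using vehicle-only plates.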
# [1] = Quantitative High-Throughput drug screen in 47 multiple myeloma cell lines against the NCATS MIPE library collection: Delta47_JCRB cell viability assay (AID 1918925; also: potency is read from the fitted curve at half-maximal effect; nearly all actives have a fitted effect of over 45% in size)
# In short: (§1)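 Myeloma cells (500 per well) were exposed to MIPE 4.0 compounds by pin transfer and incubated 48 hours at 37C, 5% CO2. Viability was read as ATP by CellTiter-Glo luminescence, normalised to DMSO (100%) and media-only (0%) wells.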
# [2] = Quantitative High-Throughput drug screen in 47 multiple myeloma cell lines against the NCATS MIPE library collection: ARP1_JJKsccF8 cell viability assay (AID 1918928; also: potency is read from the fitted curve at half-maximal effect; nearly all actives have a fitted effect of over 40% in size)
# In short: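 Myeloma cells at 500 per well in 1536-well format treated with MIPE 4.0 library by pin transfer for 48 h at 37C, 5% CO2. Viability from ATP luminescence (CellTiter-Glo), normalized to DMSO (100%) and media-only (0%) wells.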
# [3] = Quantitative High-Throughput drug screen in 47 multiple myeloma cell lines against the NCATS MIPE library collection: H1112_PLB cell viability assay (AID 1918967; also: potency is read from the fitted curve at half-maximal effect; nearly all actives have a fitted effect of over 30% in size)
# In short: as §1
# [4] = Quantitative High-Throughput drug screen in 47 multiple myeloma cell lines against the NCATS MIPE library collection: MM1R_ATCC cell viability assay (AID 1918981); also: nearly all actives have a fitted effect of over 35% in size
# In short: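 Viability after 48 h drug exposure was measured as ATP-dependent luminescence. Cells, 500 per well, sat at 37 °C under 5% CO2; DMSO wells set 100%, media-only wells 0%.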
# [5] = qHTS for identification of novel therapeutic agents for treatment of microphthalmiaassociated transcription factor (MiT) renal cell carcinoma (RCC) (AID 1963991; calls by dose curve; also: potency is read from the fitted curve at half-maximal effect); settings: TFE3-RCC UOK109 viability, CellTiter-Glo, 48 h; active = Z-AUC below -0.8 in all three lines
# In short: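 Three TFE3-fusion RCC lines (UOK109, UOK124, UOK145), 500 cells/well in complete medium, were treated with MIPE 4.0 compounds for 48 hours at 37 C. Viability was by CellTiter-Glo luminescence, normalized to DMSO (100%) and empty wells (0%); curves fitted over 11 concentrations.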
# [6] = Confirmatory screen NINDS Rhodamine qHTS for Zika virus inhibitors (AID 1347161); also: potency is read from the fitted curve at half-maximal effect; nearly all actives have a fitted effect of over 60% in size
# In short: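 Rhodamine110-peptide cleavage (1.5 µM substrate) by 25 nM linked NS2B-NS3 enzyme at pH 8.0 (Tris, Tween 20), after 15 min RT preincubation with compounds; 15-min fluorescence change normalized to controls and Hill-fitted.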
# Tags tell the direction and shape of the fitted curve.
compound,measurement,setting,value
CCCCOC(=O)CCCCCCCCC(=O)OCCCC,Potency,Tov112D,inactive
Cc1cc(-n2nc3ccc(Cl)cc3n2)c(O)c(C(C)(C)C)c1,Potency,CP329,inactive
COc1ccc(CCC(=O)c2c(O)cc(O[C@@H]3O[C@H](CO)[C@@H](O)[C@H](O)[C@@H]3O[C@@H]3O[C@@H](C)[C@H](O)[C@@H](O)[C@@H]3O)cc2O)cc1O,Potency,[1],"inconclusive: 9.35 µM [cytotoxic, single point]"
same,Potency,[2],"inconclusive: 0.0012 µM [rising, full curve]"
same,Potency,[3],"inconclusive: 11.8 µM [cytotoxic, partial curve]"
same,Potency,[4],inactive
same,Potency,[5],"inconclusive: 10.5 µM [falling, full curve]"
N[C@@H](Cc1cc(I)c(O)c(I)c1)C(=O)O,Potency,[6],"inconclusive: 27.8 µM [inhibitor, partial curve, poor fit]"
same,Potency,Tov112D,inactive
